# From PMC4336329 (PLoS ONE, 2015)
# Screen size: about 310,000 compounds; about 2,200 (0.71%) showed an effect of 50% or more. Effects have a minus sign here. The list shows a part of the results.
# Molecular target: human ether-à-go-go-related gene (hERG) potassium channel (human, UniProt Q12809)
# Assay: primary screen, population patch clamp on CHO cells stably expressing hERG
# Chain of human ether-à-go-go-related gene (hERG) potassium channel (Q12809 whole entry, looked up): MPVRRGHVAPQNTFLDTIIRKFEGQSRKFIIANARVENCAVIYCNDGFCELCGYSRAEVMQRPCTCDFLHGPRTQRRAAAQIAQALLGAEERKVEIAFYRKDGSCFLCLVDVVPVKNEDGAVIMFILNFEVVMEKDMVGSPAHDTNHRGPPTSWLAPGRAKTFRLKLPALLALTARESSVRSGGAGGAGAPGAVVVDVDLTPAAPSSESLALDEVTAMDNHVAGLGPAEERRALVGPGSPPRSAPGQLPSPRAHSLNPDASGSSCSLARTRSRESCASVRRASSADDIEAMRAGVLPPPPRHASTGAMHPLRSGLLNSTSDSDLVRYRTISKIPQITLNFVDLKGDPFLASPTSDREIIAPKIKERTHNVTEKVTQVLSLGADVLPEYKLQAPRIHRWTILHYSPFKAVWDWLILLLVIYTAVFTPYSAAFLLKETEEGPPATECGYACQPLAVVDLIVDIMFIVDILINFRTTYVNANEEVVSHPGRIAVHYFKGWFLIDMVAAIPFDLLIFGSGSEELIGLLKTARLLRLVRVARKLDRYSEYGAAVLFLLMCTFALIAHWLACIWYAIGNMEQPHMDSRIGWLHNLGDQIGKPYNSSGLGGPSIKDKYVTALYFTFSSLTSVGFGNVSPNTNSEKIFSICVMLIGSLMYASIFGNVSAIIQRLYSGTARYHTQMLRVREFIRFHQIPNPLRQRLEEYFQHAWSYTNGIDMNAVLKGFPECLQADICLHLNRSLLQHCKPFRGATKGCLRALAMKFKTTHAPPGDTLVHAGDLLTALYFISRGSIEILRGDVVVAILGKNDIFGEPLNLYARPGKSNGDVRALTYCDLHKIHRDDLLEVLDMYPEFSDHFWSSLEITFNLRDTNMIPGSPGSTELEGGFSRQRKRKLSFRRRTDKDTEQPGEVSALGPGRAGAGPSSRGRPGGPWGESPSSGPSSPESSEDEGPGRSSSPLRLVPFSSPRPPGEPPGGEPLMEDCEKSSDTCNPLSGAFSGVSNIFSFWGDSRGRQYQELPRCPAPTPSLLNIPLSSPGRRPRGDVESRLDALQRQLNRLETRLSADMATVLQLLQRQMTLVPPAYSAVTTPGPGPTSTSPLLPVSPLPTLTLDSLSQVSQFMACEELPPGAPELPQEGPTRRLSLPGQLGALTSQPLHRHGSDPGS
row,Structure (SMILES),"hERG current change (%, negative = inhibition) at 1uM"
1,c1ccc(N2CCN(CC3CCCCC3)CC2)cc1,15.4%
2,O=C(NCc1ccccc1)C(c1ccccc1)N(C(=O)c1csnn1)c1ccc(F)cc1 (stereo not shown),9.78%
3,COC(=O)c1sc(=S)n(-c2ccccc2)c1N,6.66%
4,COc1ccc(Cc2nnc(NC(=O)c3cccs3)s2)cc1OC,2.14%
5,COc1ccc(/C(N)=N/OC(=O)CSc2ccccc2)cc1,5.01%
6,CC(C)c1ccc(NC2CCCN(C(=O)c3cscn3)C2)cc1 (stereo not shown),12.1%
7,CC(=O)N1CCN(C(=O)C2(NC(=O)Nc3cccc(F)c3)CCCCC2)CC1,15%
8,CSCCC(NC(=O)c1ccccc1Cl)C(=O)NNC(=O)c1ccncc1 (stereo not shown),-7.14%
9,COc1cccc(CN2CCC(C(=O)N3CCN(c4ccccc4F)CC3)CC2)c1,-20.8%
10,Cc1nnc(SCc2ccc(CC(=O)O)cc2)o1,6.6%
11,Fc1cc(Br)ccc1NC(=S)NCCc1ccccc1,4.19%
12,COc1ccc(-c2csc(N3CCC(C(N)=O)(N4CCCCC4)CC3)n2)cc1,5.58%
13,N=c1c(C(=O)NCC2CCCO2)cc2c(=O)n3ccccc3nc2n1Cc1cccnc1 (stereo not shown),-34.7%
14,COC(OC)C1(C)C(C#N)=C(N)Oc2c1c(=O)oc1ccccc21 (stereo not shown),8.87%
15,CCc1nnc(SCC(=O)Nc2nccs2)n1CC,12.4%
16,CC1=C(C(=O)OCc2ccccc2)C(c2ccccc2)NC(=O)N1CCCCCC(=O)O (stereo not shown),8.36%
17,Cc1ccc(N2CCN(C(=O)Nc3cccc([N+](=O)[O-])c3)CC2C)cc1 (stereo not shown),5.32%
18,Cc1coc2c1c(C)cc1oc(=O)c(Cc3ccccc3)c(C)c12,15%
19,COc1ccc(NC(=O)c2ccco2)cn1,17.8%
20,Cc1cc(NC(=O)c2ccc(C)c(C)c2)no1,11%
21,CC1(C)CC(=O)N(CC(=O)O)c2ccccc2S1(=O)=O,2.76%
22,O=C(CNS(=O)(=O)c1cccc(C(F)(F)F)c1)Nc1ccccc1F,-2.49%

row,Structure (SMILES),"hERG current change (%, negative = inhibition) at 1uM"
1,COc1ccc(CN2CCN(Cc3cn(C)nc3-c3ccccc3)CC2CCO)c(C)c1C (stereo not shown),-34.3%
2,CCn1c(-c2ccccc2Cl)nn(CC(=O)Nc2ccccc2C)c1=S,3.39%
3,CCS(=O)(=O)C(=C(Nc1ccc(OC)cc1)Nc1ccc(OC)cc1)S(=O)(=O)CC,5.46%
4,O=S(=O)(NCCc1ccccc1)c1ccc(F)cc1,4.42%
5,c1ccc(Sc2ncnc3c2oc2ccccc23)cc1,20.2%
6,NC(=O)C1CC(=O)N(c2ccc(OCc3c(Cl)cccc3Cl)cc2)C1 (stereo not shown),19.2%
7,OCCC1CN(Cc2ccc3cc(Cl)ccc3n2)CCN1Cc1ccsc1 (stereo not shown),-42.1%
8,CCOc1ccc(C(=O)CCC(=O)Nc2ccc(C)cn2)cc1,-5.09%
9,CCOC(=O)c1ccccc1N/C=C1\CCCC1=O,5.17%
10,COc1ccc(-c2csc3ncnc(N4CCN(S(=O)(=O)c5ccc(C(C)=O)cc5)CC4)c23)cc1,-9.22%
11,CC(C)c1ccc2c(c1)CCC1C(C)(CN)CCCC21C.O=C(O)c1ccccc1 (stereo not shown),6.01%
12,Cc1oc(-c2ccccc2F)nc1CS(=O)(=O)CC(=O)N1CCc2ccccc21,12.4%
13,CCSc1nnc(N2C(=O)c3ccc(C(=O)c4ccc(C(=O)O)cc4)cc3C2=O)s1,10.9%
14,COc1ccc(NC(=O)c2cc3c(CO)cnc(C)c3oc2=Nc2cccc(F)c2)c(OC)c1,12.8%
15,CCOC(=O)c1c(CN(CC)CC)oc2ccc(OC)cc12,-25.8%
16,O=C(COC(=O)CNS(=O)(=O)c1c(Cl)cccc1Cl)Nc1cccnc1Cl,1.04%
17,CC1CCc2[nH]c3ccc(C(=O)Nc4ccc(C(=O)N(C)C)cc4)cc3c2C1 (stereo not shown),20.4%
18,Cc1cc(=O)oc2cc(OC(C)C(=O)NC3CCN(Cc4ccccc4)CC3)ccc12 (stereo not shown),-52.6%
19,CC1CCN(CCCCOc2ccc(C(C)(C)C)cc2)CC1.O=C(O)C(=O)O,-3.74%
20,COc1ccc(NC(=O)CSc2c3c(nc4ccccc24)CCCC3)c(OC)c1,5.62%
21,O=C(CCc1nnc(-c2ccccc2)o1)NCc1c(F)cccc1F,10%
22,COc1ccc(C(CC(=O)N2CCCC2)c2ccc(F)cc2)cc1 (stereo not shown),7.68%

row,Structure (SMILES),"hERG current change (%, negative = inhibition) at 1uM"
1,Cc1ccc(NS(=O)(=O)c2ccc(C(=O)OCC(=O)NCC3CCCO3)cc2)cc1 (stereo not shown),10.7%
2,COc1ccc(NC(=O)c2cc3n(n2)C(C(F)(F)F)CC(c2ccco2)N3)cc1 (stereo not shown),8.02%
3,CC1CCN(S(=O)(=O)c2ccc3c(c2)N(CC(=O)NCc2cccnc2)C(=O)CS3)CC1,2.67%
4,CCOC(=O)CC1C(=O)NCCN1C(=O)c1c(F)cccc1F (stereo not shown),8.2%
5,N=c1c2c3c(sc2ncn1CCN1CCOCC1)CCCCC3,-4.43%
6,Cc1cccc(OC(C)C(=O)N(Cc2cccs2)C2CCS(=O)(=O)C2)c1C (stereo not shown),18.6%
7,O=C(C1CCCC1)N1CCN(S(=O)(=O)c2ccc(F)cc2)CC1,12.5%
8,COc1ccc(CCNC(=O)c2cc(-c3ccc4c(c3)OCO4)on2)cc1OC,-5.64%
9,Cc1ccc2cc(/C=N/NC(=O)CN3CCCCC3)c(Cl)nc2c1,2.13%
10,COc1ccc(CNCc2ccc([N+](=O)[O-])cc2)cc1OC.O=C(O)C(=O)O,0.367%
11,COCCNc1c2c(nc3ccccc13)CCC2.Cl,-41.5%
12,Cc1nc2scc(C)n2c(=O)c1S(=O)(=O)NCc1ccccc1,12.1%
13,O=C(Nc1nc2ccccc2n1CCN1CCOCC1)c1cn(-c2ccccc2)nc1-c1ccccc1,11.4%
14,CN(CCCNC(=O)c1ccc(N2CCCC2=O)cc1)c1ccccc1,3.05%
15,CCOC(=O)C(=O)c1csc(NC(=O)CCSc2ccc(C)cc2)n1,13%
16,CC1CC(C)CN(C(=O)C2CCC(CNS(=O)(=O)c3ccccc3)CC2)C1 (stereo not shown),8.93%
17,Cc1ccc(NC(=O)CSc2n[nH]c(=O)n2C2CC2)cc1S(=O)(=O)N1CCOCC1,12.4%
18,CC(C)Oc1ccc(/C(O)=C2/C(=O)C(=O)N(CCN3CCNCC3)C2c2cccc([N+](=O)[O-])c2)cc1 (stereo not shown),14%
19,O/N=C/c1nc2cc(Cl)ccc2o1,10.2%
20,CCOc1c(Cl)cc(C(=O)Nc2ccccc2C(=O)O)cc1Cl,28.5%
21,O=C(CSc1ccc(Cl)cc1)Nc1ccc(N2CCN(C(=O)c3ccco3)CC2)cc1,8.45%
22,O=C(CSc1nnc(COc2ccccc2)o1)NC1CC2CCC1C2 (stereo not shown),14.8%

row,Structure (SMILES),"hERG current change (%, negative = inhibition) at 1uM"
1,CC(C)N(CCNS(=O)(=O)c1ccc(Cl)cc1)C(C)C.Cl,-4.62%
2,Cc1c(Cl)cn2c(=O)cc(CN3CCN(c4ccc(F)cc4)CC3)nc2c1Cl,-30%
3,O=C(Nc1ccc(S(=O)(=O)N2CCOCC2)cc1)c1cccc(Br)c1,7.5%
4,COc1cccc(N=C2SC(C(=O)Nc3ccccc3F)CC(=O)N2C)c1 (stereo not shown),7.25%
5,COc1ccc([N+](=O)[O-])cc1NC(=O)C(C)OC(=O)Cn1[nH]c(=O)c2ccccc2c1=O (stereo not shown),6.84%
6,Cc1ccc(C)c(OCCCNCc2ccccc2)c1.O=C(O)C(=O)O,5.9%
7,Cc1[nH]c(=O)c(C#N)c(C)c1[N+](=O)[O-],-0.0181%
8,C=CCN(c1ccc(Br)cc1C(=O)OC)S(C)(=O)=O,10%
9,CC(C)N(C(=O)c1ccc(C(=O)Nc2ccc([N+](=O)[O-])cc2)cc1)C(C)C,9.51%
10,CCn1cc(C(=O)O)c(=O)c2cnc(N3CCN(C(=S)NC(=O)c4ccc(F)c(F)c4)CC3)nc21,13%
11,N#CC1=C(C=Nc2ccccc2O)CCC1,10.1%
12,CCCCOc1c(Cl)cc(C(=O)N(C)CC(=O)Nc2ccc(N3CCOCC3)cc2)cc1OCC,9.76%
13,COC(=O)N/N=C/c1ccccc1OCc1ccccc1,12.4%
14,CCOc1ccc(OC(=O)c2cccnc2)cc1,11.8%
15,COc1cc(C(=O)OCC(=O)NCCCc2ccccc2)ccc1OCC(C)C,19.7%
16,CC(C)NC(=O)CSc1ccccc1C(=O)N1CCN(S(=O)(=O)/C=C/c2ccccc2)CC1,1.89%
17,CC1=CC(C2CC(=O)N(c3ccccc3C)C2=O)CC2C(=O)N(c3ccccc3C)C(=O)C12 (stereo not shown),10.8%
18,COc1ccccc1N1CCN(c2ncnc3c2oc2ccccc23)CC1,15%
19,COc1ccccc1NC(=O)C1=C(C)Nc2nc(-c3ccccc3)nn2C1c1ccccn1 (stereo not shown),1.46%
20,Cc1noc(C)c1CSCc1ccc(Cl)cc1,31.8%
21,Cc1[nH]nc2c1-c1nc3ccccc3nc1C(C)(C)C2,7.07%
22,CC(OC(=O)Cn1[nH]c(=O)c2ccccc2c1=O)C(=O)NC1(C#N)CCCCC1 (stereo not shown),22.2%
